The other results are listed elsewhere or left out. The list includes weakly bound sequences.

Binding signal (RPM ratio (pull-down/input)) data for 63 sequences are collected here from paper PMC12820563.

For the assay, the target named is T1, MBP-FoxP3dN (UniProt Q99JB6).
T1 sequence: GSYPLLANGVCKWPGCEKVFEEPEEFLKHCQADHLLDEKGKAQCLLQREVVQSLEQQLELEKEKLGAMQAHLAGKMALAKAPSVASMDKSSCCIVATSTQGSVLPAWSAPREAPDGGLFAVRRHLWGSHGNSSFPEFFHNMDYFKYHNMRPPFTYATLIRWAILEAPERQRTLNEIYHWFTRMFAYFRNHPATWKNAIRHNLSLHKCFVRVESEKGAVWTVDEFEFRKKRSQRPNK
The experiment in a line: PD-seq (MBP pull-down with sequencing). Particulars: 20 mM Tris-HCl pH 7.5, 100 mM NaCl, 1.5 mM MgCl2, 0.4 uM protein, 0.1 uM dsDNA library, 30 min, room temperature, amylose pull-down; high values mean tight binding; double strand, one strand shown.
On to “GATGATTGTTCTCCCAGCTGATGAATTTCATAGATCGAGTAAACAAATTTTCCTAATCTTTCTGTTCAAGCGCCATCTAC”, for which the binding signal (RPM ratio (pull-down/input)) was 0.278.
With “GATGATTGTTCTCCCAGCTGATGAATTTAATGCATCGAGTAAACAAATTTTCCTAATCTTTCTGTTCAAGCGCCATCTAC” the figure was 1.99; with “GATGATTGTTCTCCCAGCTGATGAATTCACGTCCTCGAGTAAACAAATTTTCCTAATCTTTCTGTTCAAGCGCCATCTAC”, 0.353.
With “GATGATTGTTCTCCCAGCTGATGAATTAAGGGATTCGAGTAAACAAATTTTCCTAATCTTTCTGTTCAAGCGCCATCTAC” the figure was 0.4.
Under “GATGATTGTTCTCCCAGCTGATGAATTGACACATTCGAGTAAACAAATTTTCCTAATCTTTCTGTTCAAGCGCCATCTAC” stands 0.772.
With “GATGATTGTTCTCCCAGCTGATGAATTTTTCCGATCGAGTAAACAAATTTTCCTAATCTTTCTGTTCAAGCGCCATCTAC”, the binding signal (RPM ratio (pull-down/input)) came to 0.192.
For “GATGATTGTTCTCCCAGCTGATGAATTATAATGGTCGAGTAAACAAATTTTCCTAATCTTTCTGTTCAAGCGCCATCTAC”, the binding signal (RPM ratio (pull-down/input)) was found to be 0.57.
Take “GATGATTGTTCTCCCAGCTGATGAATTGAGAAAGTCGAGTAAACAAATTTTCCTAATCTTTCTGTTCAAGCGCCATCTAC”: the binding signal (RPM ratio (pull-down/input)) worked out at 0.178.
Turning to “GATGATTGTTCTCCCAGCTGATGAATTTCGAATATCGAGTAAACAAATTTTCCTAATCTTTCTGTTCAAGCGCCATCTAC”, the binding signal (RPM ratio (pull-down/input)) was 0.521.
With “GATGATTGTTCTCCCAGCTGATGAATTAGTCAAGTCGAGTAAACAAATTTTCCTAATCTTTCTGTTCAAGCGCCATCTAC” the figure was 0.297; with “GATGATTGTTCTCCCAGCTGATGAATTAAACGTCTCGAGTAAACAAATTTTCCTAATCTTTCTGTTCAAGCGCCATCTAC”, 0.427.
With “GATGATTGTTCTCCCAGCTGATGAATTTAGATACTCGAGTAAACAAATTTTCCTAATCTTTCTGTTCAAGCGCCATCTAC” the figure was 1.25; with “GATGATTGTTCTCCCAGCTGATGAATTTGACCTTTCGAGTAAACAAATTTTCCTAATCTTTCTGTTCAAGCGCCATCTAC”, 0.418; with “GATGATTGTTCTCCCAGCTGATGAATTCGGACGGTCGAGTAAACAAATTTTCCTAATCTTTCTGTTCAAGCGCCATCTAC”, 0.201.
Take “GATGATTGTTCTCCCAGCTGATGAATTAGTCCACTCGAGTAAACAAATTTTCCTAATCTTTCTGTTCAAGCGCCATCTAC”: the binding signal (RPM ratio (pull-down/input)) worked out at 0.53.
With “GATGATTGTTCTCCCAGCTGATGAATTTATTAAGTCGAGTAAACAAATTTTCCTAATCTTTCTGTTCAAGCGCCATCTAC” the figure was 0.705; with “GATGATTGTTCTCCCAGCTGATGAATTTCATAATTCGAGTAAACAAATTTTCCTAATCTTTCTGTTCAAGCGCCATCTAC”, 0.324; with “GATGATTGTTCTCCCAGCTGATGAATTAGTTTCATCGAGTAAACAAATTTTCCTAATCTTTCTGTTCAAGCGCCATCTAC”, 1.56.
With “GATGATTGTTCTCCCAGCTGATGAATTGGTACCATCGAGTAAACAAATTTTCCTAATCTTTCTGTTCAAGCGCCATCTAC” the figure was 0.697.
With “GATGATTGTTCTCCCAGCTGATGAATTGAGAGATTCGAGTAAACAAATTTTCCTAATCTTTCTGTTCAAGCGCCATCTAC” the figure was 0.386; with “GATGATTGTTCTCCCAGCTGATGAATTGTCTAATTCGAGTAAACAAATTTTCCTAATCTTTCTGTTCAAGCGCCATCTAC”, 0.542; with “GATGATTGTTCTCCCAGCTGATGAATTCAGGGAGTCGAGTAAACAAATTTTCCTAATCTTTCTGTTCAAGCGCCATCTAC”, 0.296.
As to “GATGATTGTTCTCCCAGCTGATGAATTAGAAGAGTCGAGTAAACAAATTTTCCTAATCTTTCTGTTCAAGCGCCATCTAC”, the binding signal (RPM ratio (pull-down/input)) was 0.214.
Under “GATGATTGTTCTCCCAGCTGATGAATTTAAGACATCGAGTAAACAAATTTTCCTAATCTTTCTGTTCAAGCGCCATCTAC” stands 0.436; under “GATGATTGTTCTCCCAGCTGATGAATTGGCCTCATCGAGTAAACAAATTTTCCTAATCTTTCTGTTCAAGCGCCATCTAC”, 0.746; under “GATGATTGTTCTCCCAGCTGATGAATTCAGCCCGTCGAGTAAACAAATTTTCCTAATCTTTCTGTTCAAGCGCCATCTAC”, 1.19.
With “GATGATTGTTCTCCCAGCTGATGAATTAAATACTTCGAGTAAACAAATTTTCCTAATCTTTCTGTTCAAGCGCCATCTAC” the figure was 0.469; with “GATGATTGTTCTCCCAGCTGATGAATTTGAGTTATCGAGTAAACAAATTTTCCTAATCTTTCTGTTCAAGCGCCATCTAC”, 0.953.
Under “GATGATTGTTCTCCCAGCTGATGAATTCATTTGCTCGAGTAAACAAATTTTCCTAATCTTTCTGTTCAAGCGCCATCTAC” stands 2.92; under “GATGATTGTTCTCCCAGCTGATGAATTAAATCTATCGAGTAAACAAATTTTCCTAATCTTTCTGTTCAAGCGCCATCTAC”, 0.327; under “GATGATTGTTCTCCCAGCTGATGAATTTTAAGCGTCGAGTAAACAAATTTTCCTAATCTTTCTGTTCAAGCGCCATCTAC”, 0.485.
As to “GATGATTGTTCTCCCAGCTGATGAATTTATAGAATCGAGTAAACAAATTTTCCTAATCTTTCTGTTCAAGCGCCATCTAC”, the binding signal (RPM ratio (pull-down/input)) came to 0.337.
For “GATGATTGTTCTCCCAGCTGATGAATTGTACGACTCGAGTAAACAAATTTTCCTAATCTTTCTGTTCAAGCGCCATCTAC”, the binding signal (RPM ratio (pull-down/input)) is 0.357.
With “GATGATTGTTCTCCCAGCTGATGAATTCTAGCAATCGAGTAAACAAATTTTCCTAATCTTTCTGTTCAAGCGCCATCTAC” the figure was 2.2.
For the sequence “GATGATTGTTCTCCCAGCTGATGAATTCGCGTCATCGAGTAAACAAATTTTCCTAATCTTTCTGTTCAAGCGCCATCTAC”, the binding signal (RPM ratio (pull-down/input)) amounted to 1.24.
Regarding “GATGATTGTTCTCCCAGCTGATGAATTTGGGTATTCGAGTAAACAAATTTTCCTAATCTTTCTGTTCAAGCGCCATCTAC”, the binding signal (RPM ratio (pull-down/input)) worked out at 1.37.
Consider “GATGATTGTTCTCCCAGCTGATGAATTATGATTGTCGAGTAAACAAATTTTCCTAATCTTTCTGTTCAAGCGCCATCTAC”, for which the binding signal (RPM ratio (pull-down/input)) stood at 4.27.
On to “GATGATTGTTCTCCCAGCTGATGAATTTATCAGTTCGAGTAAACAAATTTTCCTAATCTTTCTGTTCAAGCGCCATCTAC”, for which the binding signal (RPM ratio (pull-down/input)) worked out at 1.12.
With “GATGATTGTTCTCCCAGCTGATGAATTGGCTGAGTCGAGTAAACAAATTTTCCTAATCTTTCTGTTCAAGCGCCATCTAC” the figure was 0.244; with “GATGATTGTTCTCCCAGCTGATGAATTTTAACACTCGAGTAAACAAATTTTCCTAATCTTTCTGTTCAAGCGCCATCTAC”, 0.669; with “GATGATTGTTCTCCCAGCTGATGAATTAGGCGCGTCGAGTAAACAAATTTTCCTAATCTTTCTGTTCAAGCGCCATCTAC”, 1.45.
For “GATGATTGTTCTCCCAGCTGATGAATTCCTAACCTCGAGTAAACAAATTTTCCTAATCTTTCTGTTCAAGCGCCATCTAC”, the binding signal (RPM ratio (pull-down/input)) amounted to 0.249.
With “GATGATTGTTCTCCCAGCTGATGAATTAGTCTAATCGAGTAAACAAATTTTCCTAATCTTTCTGTTCAAGCGCCATCTAC” the figure was 0.582.
With “GATGATTGTTCTCCCAGCTGATGAATTTCCATGCTCGAGTAAACAAATTTTCCTAATCTTTCTGTTCAAGCGCCATCTAC” the figure was 0.361.
With “GATGATTGTTCTCCCAGCTGATGAATTATGCAAATCGAGTAAACAAATTTTCCTAATCTTTCTGTTCAAGCGCCATCTAC” the figure was 1.16; with “GATGATTGTTCTCCCAGCTGATGAATTGGCAACGTCGAGTAAACAAATTTTCCTAATCTTTCTGTTCAAGCGCCATCTAC”, 0.907; with “GATGATTGTTCTCCCAGCTGATGAATTTGCGCTTTCGAGTAAACAAATTTTCCTAATCTTTCTGTTCAAGCGCCATCTAC”, 1.8.
With “GATGATTGTTCTCCCAGCTGATGAATTTTGGAAATCGAGTAAACAAATTTTCCTAATCTTTCTGTTCAAGCGCCATCTAC”, the binding signal (RPM ratio (pull-down/input)) was found to be 0.335.
On to “GATGATTGTTCTCCCAGCTGATGAATTAGACAAATCGAGTAAACAAATTTTCCTAATCTTTCTGTTCAAGCGCCATCTAC”, for which the binding signal (RPM ratio (pull-down/input)) turned out to be 0.417.
Under “GATGATTGTTCTCCCAGCTGATGAATTCTCTAGCTCGAGTAAACAAATTTTCCTAATCTTTCTGTTCAAGCGCCATCTAC” stands 0.209; under “GATGATTGTTCTCCCAGCTGATGAATTGCGCTGCTCGAGTAAACAAATTTTCCTAATCTTTCTGTTCAAGCGCCATCTAC”, 1.14; under “GATGATTGTTCTCCCAGCTGATGAATTCTGTATCTCGAGTAAACAAATTTTCCTAATCTTTCTGTTCAAGCGCCATCTAC”, 4.93.
Consider “GATGATTGTTCTCCCAGCTGATGAATTGAGTGACTCGAGTAAACAAATTTTCCTAATCTTTCTGTTCAAGCGCCATCTAC”, for which the binding signal (RPM ratio (pull-down/input)) stood at 0.823.
For “GATGATTGTTCTCCCAGCTGATGAATTGGTTAGTTCGAGTAAACAAATTTTCCTAATCTTTCTGTTCAAGCGCCATCTAC”, the binding signal (RPM ratio (pull-down/input)) was found to be 2.42.
For “GATGATTGTTCTCCCAGCTGATGAATTCTCTACGTCGAGTAAACAAATTTTCCTAATCTTTCTGTTCAAGCGCCATCTAC”, the binding signal (RPM ratio (pull-down/input)) is 0.263.
Under “GATGATTGTTCTCCCAGCTGATGAATTTAGTAGGTCGAGTAAACAAATTTTCCTAATCTTTCTGTTCAAGCGCCATCTAC” stands 0.704; under “GATGATTGTTCTCCCAGCTGATGAATTATAACTCTCGAGTAAACAAATTTTCCTAATCTTTCTGTTCAAGCGCCATCTAC”, 0.598; under “GATGATTGTTCTCCCAGCTGATGAATTTCTTCGGTCGAGTAAACAAATTTTCCTAATCTTTCTGTTCAAGCGCCATCTAC”, 0.18.
Under “GATGATTGTTCTCCCAGCTGATGAATTGGACCGGTCGAGTAAACAAATTTTCCTAATCTTTCTGTTCAAGCGCCATCTAC” stands 0.204; under “GATGATTGTTCTCCCAGCTGATGAATTCAGTAGATCGAGTAAACAAATTTTCCTAATCTTTCTGTTCAAGCGCCATCTAC”, 0.408; under “GATGATTGTTCTCCCAGCTGATGAATTAGGACTGTCGAGTAAACAAATTTTCCTAATCTTTCTGTTCAAGCGCCATCTAC”, 0.681.
Under “GATGATTGTTCTCCCAGCTGATGAATTCGTCGACTCGAGTAAACAAATTTTCCTAATCTTTCTGTTCAAGCGCCATCTAC” stands 0.351; under “GATGATTGTTCTCCCAGCTGATGAATTTGCGGTTTCGAGTAAACAAATTTTCCTAATCTTTCTGTTCAAGCGCCATCTAC”, 1.42.
